According to PubChem BioAssay AID651820 (National Center for Advancing Translational Sciences (NCATS), 2012):
The whole screen tested about 340,000 compounds, of which about 12,000 (3.5%) were called active. The shares of active, inactive and inconclusive entries below differ from those in the screen. The call rests on the fitted dose curve; in most records, active means well fitted inhibition curve with a large enough effect; inconclusive means small, poorly fitted or top-dose-only effect, or another doubt; inactive means no such curve, though single readings can be large or run the other way. No potency is given beside an inconclusive call; the fits are too rough.
On the % scale 0 is the no-effect control and ±100 the full control effect; potency means the concentration at half of the fitted maximal effect; tags describe the fitted curve by direction and shape.

Test: qHTS Assay for Inhibitors of Hepatitis C Virus (HCV)
Conditions: Huh7.5.1 HCVcc-Cre (HCVcc is cell-culture hepatitis C virus) infection, luciferase reporter, 44 h; activity change, negative = inhibition: at 41.8 µM (top of the series) unless noted
Method in brief: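 Compounds are dispensed onto cells plated 4 h earlier at 1,000 per well, with HCVcc-Cre virus (about 0.5 moi) added next. Following 44 h of culture, luminescent signal is measured for 15 sec after 15 min with substrate at room temperature.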
For `CCC(C)NC(=O)CO/N=C/c1ccccc1OC(F)F` (configuration not stated), the Potency was inconclusive [inhibitor, single point].
For `CCN(CC(=O)NCc1ccc(F)cc1)C(=O)c1cccnc1SC`, the “activity change, negative = inhibition” value was inactive: 27.5%.
In the case of `Nc1ccc(C(=O)OCc2ccncc2)cc1[N+](=O)[O-]`, the “activity change, negative = inhibition” value is reported as inactive: 9.12%.
In the case of `O=C(CNC(=O)c1ccc2c(c1)OCO2)N/N=C(Br)/C=C/c1ccccc1`, the Potency is reported as inconclusive [inhibitor, partial curve].
For `Cc1ccc(S(=O)(=O)N(C)C)cc1NC(=O)c1cncc(Br)c1`, the Potency was inconclusive [inhibitor, single point].
For `CN(c1nc(-c2ccc(Br)cc2)cs1)C1CCS(=O)(=O)C1` (configuration not stated), the Potency was inconclusive [inhibitor, partial curve].
For `CCCCn1c(-c2csc3ccccc23)n[nH]c1=S`, the “activity change, negative = inhibition” value was inactive: 3.17%.
For `Cc1c(C(=O)N(C)c2ccc(Cl)cc2)cnn1-c1ccccc1`, the Potency was inconclusive [inhibitor, partial curve].
For `O=C(N/N=C/c1ccc(C(F)(F)F)cc1)c1ccncc1`, the “activity change, negative = inhibition” value was inactive: -12.8%.
For `Cc1ccc([N+](=O)[O-])cc1NCC(=O)NN`, the “activity change, negative = inhibition” value was inactive: 2.61%.
In the case of `COc1cc(OC)c(NC(=O)Cc2ccc(OC)c(S(=O)(=O)N3CCOCC3)c2)cc1Cl`, the “activity change, negative = inhibition” value is reported as inactive: -8.43%.
With `CC1=C(C(=O)OC2CCCCC2)C(c2cccnc2)n2nnnc2N1` (configuration not stated) the Potency was inconclusive [inhibitor, partial curve].
For `CC1(c2ccc3ccccc3c2)NC(=O)N(CC(=O)N2CCN(Cc3ccccc3)CC2)C1=O` (configuration not stated), the Potency was active: 3.16 µM.
In the case of `COc1ccc(N2CCN(C(=O)C(C)(C)Oc3ccc(Cl)cc3)CC2)cc1`, the Potency is reported as inconclusive [inhibitor, single point].
In the case of `Cc1cc(C)c(S(=O)(=O)N2CCN(C(=O)c3cc4ccccc4oc3=O)CC2)c(C)c1`, the Potency is reported as inconclusive [inhibitor, partial curve].
In the case of `CCS(=O)(=O)c1ccc2oc(SCC(=O)NCCC3=CCCCC3)nc2c1`, the “activity change, negative = inhibition” value is reported as inactive: 2.97%.
In the case of `CC(Nc1nc(-c2ccccc2O)nc2ccccc12)c1ccccc1` (configuration not stated), the Potency is reported as inconclusive [inhibitor, single point].
With `Cc1ccc(Cn2c(C)c3cnn(CC(=O)N4CCC5(CC4)OCCO5)c(=O)c3c2C)cc1` the Potency was inconclusive [inhibitor, single point].
With `O=C(Nc1cc(C(F)(F)F)ccc1-n1cncn1)c1ccc(Cl)cc1` the Potency was inconclusive [inhibitor, single point].
In the case of `COCCNC(=O)c1cn(C)c2ccc(S(=O)(=O)N3CCCC3)cc2c1=O`, the Potency is reported as inconclusive [inhibitor, single point].
In the case of `CC(C)OC(=O)c1cc(NC(=O)C2C3CCC(O3)C2C(=O)O)cc(C(=O)OC(C)C)c1` (configuration not stated), the Potency is reported as inconclusive [inhibitor, partial curve].
With `O=C(Cc1ccc2c(c1)OCO2)NN=Cc1ccc([N+](=O)[O-])o1` the Potency was active: 10 µM.
In the case of `CCCc1c(C(=O)N/N=C/c2ccco2)nnn1-c1nonc1N`, the “activity change, negative = inhibition” value is reported as inactive: -2.4%.
For `COc1ccc(S(=O)(=O)N2CCCCC2)cc1NC(=O)c1c(F)cccc1Cl`, the Potency was inconclusive [inhibitor, single point].
With `CC(=O)c1ccc(Oc2nc(-c3cccnc3)nc3ccccc23)cc1` the Potency was active: 11.2 µM.
For `Cc1cccc(-c2nc3ccc(C(=O)N4CCC5(CC4)OCCO5)cc3nc2-c2cccc(C)c2)c1`, the Potency was inconclusive [inhibitor, single point].
For `O=C(CSc1ccc(-c2ccco2)nn1)c1ccc(F)cc1`, the Potency was inconclusive [inhibitor, single point].
For `Cc1cccc(COCC(CC(C)C)N2CCN(C(=O)c3ccc(C(F)(F)F)cc3)CCC2=O)c1` (configuration not stated), the Potency was inconclusive [inhibitor, single point].
In the case of `Cc1nn(CC(=O)NCCCN2CCC(Cc3ccccc3)CC2)c(=O)c2cc(-c3ccccc3)nn12`, the Potency is reported as inconclusive [inhibitor, full curve].
With `C#CCOCCOCCOCCNc1nc(N2CCN(C(=O)Cn3cc(CC(C)O)nn3)CC2)nc(N2CCN(C(=O)[C@H](CCCCN)n3cc(CCCC)nn3)CC2)n1` (some centres not stated) the “activity change, negative = inhibition” value was inactive: 3.2%.
In the case of `CC(=O)Nc1nc(C)c(-c2csc(Nc3ccc(S(N)(=O)=O)cc3)n2)s1`, the Potency is reported as inconclusive [inhibitor, full curve, poor fit].
In the case of `COc1ccc(-c2cc3c(=O)n(CC(=O)NCCCN4CCC(N5CCCCC5)CC4)nc(C)n3n2)cc1`, the Potency is reported as inconclusive [inhibitor, partial curve].
With `O=C(COc1ccccc1[N+](=O)[O-])Nc1ccc2c(c1)OCO2` the Potency was inconclusive [inhibitor, single point].
With `Cc1cc(NCC2CCCCC2)nc2ccccc12` the Potency was inconclusive [inhibitor, partial curve].
In the case of `Cc1c(Cl)c(=O)oc2cc(OCC(=O)N3CCCC(C)C3)ccc12` (configuration not stated), the Potency is reported as inconclusive [inhibitor, single point].
For `COc1cccc(C(=O)CSc2nccn2C)c1`, the “activity change, negative = inhibition” value was inactive: -2.86%.
In the case of `CC1=CC(C)(C)n2c(O)c(N=NC(N)=S)c3c(C)ccc1c32`, the Potency is reported as inconclusive [inhibitor, partial curve].
For `NS(=O)(=O)c1ccc(NC(=O)c2cc(-c3cccs3)nc3ccccc23)cc1`, the Potency was inconclusive [inhibitor, partial curve].
In the case of `COc1ccccc1NS(=O)(=O)c1ccc2c(c1)N(C(C)=O)CC(C)S2` (configuration not stated), the “activity change, negative = inhibition” value is reported as inactive: 3.52%.
With `COc1ccc(N=Cc2nc(-c3ccccc3)oc2OC(C)=O)cc1` the “activity change, negative = inhibition” value was inactive: 11.4%.
With `COCCCNC(=O)Cc1c(C)c2c(cc(C)c3c(C(C)(C)C)coc32)oc1=O` the Potency was active: 11.2 µM.
For `Cc1nc2ccc(NC(=O)c3cc([N+](=O)[O-])cc([N+](=O)[O-])c3Cl)cc2s1`, the Potency was active: 25.1 µM.
With `O=C1C2C(c3ccccc3)CC=CC2[C@H](c2ccoc2)N1Cc1ccccc1` (some centres not stated) the Potency was inconclusive [inhibitor, single point].
In the case of `COc1ccc(COc2cc(-c3cccc(OC)c3)nc3ccc(N)cc23)cc1`, the Potency is reported as inconclusive [inhibitor, partial curve].
With `CCOc1ccccc1N1CCN(CC(O)COc2ccc3c(C)cc(=O)oc3c2)CC1` (configuration not stated) the Potency was inconclusive [inhibitor, single point].
With `COC(=O)c1ccc(NCc2cc(O)ccc2O)cc1` the Potency was active: 5.01 µM.
In the case of `CCOc1ccc(S(=O)(=O)N2CCCC(C(=O)NCc3ccccn3)C2)cc1C` (configuration not stated), the Potency is reported as inconclusive [inhibitor, partial curve].
For `Cc1ccc(CN(C(=O)c2ccco2)C(C(=O)NC2CCCC2)c2ccc(N3CCOCC3)cc2)cc1` (configuration not stated), the Potency was inconclusive [inhibitor, single point].
For `C=CCNc1ncnc2c1[nH]c1ccccc12`, the Potency was active: 11.2 µM.
With `c1ccc(Oc2nc3ccccc3n3cccc23)cc1` the Potency was active: 10 µM.
For `Cc1nc(-c2cccc(NC(=O)c3cccc(S(=O)(=O)N4CCCC4)c3)c2)cs1`, the Potency was active: 10 µM.
For `COc1cc(CNCc2ccccn2)ccc1OCc1ccc(Cl)c(Cl)c1`, the “activity change, negative = inhibition” value was inactive: -20.6%.
With `CC(=O)c1cccc(NC(=O)CSCc2ccc(Br)cc2)c1` the Potency was inconclusive [inhibitor, single point].
In the case of `COC(=O)c1ccccc1NC(=O)CSc1nnc(-c2ccncc2)o1`, the “activity change, negative = inhibition” value is reported as inactive: 10.4%.
With `Cc1ccc(S(=O)(=O)N2CCCCC2CCNC(=O)C(=O)NCc2ccccc2)cc1` (configuration not stated) the Potency was inconclusive [inhibitor, partial curve].
For `CC12CCC(=O)N1C(C(=O)Nc1ccc(SC(F)F)cc1)CS2` (configuration not stated), the Potency was inconclusive [inhibitor, single point].
With `Cc1cc(Cl)ccc1OCCCC(=O)NO` the Potency was active: 7.08 µM.
With `COc1ccc(Nc2nc(N3CCCC3)c3ccccc3n2)cc1` the Potency was active: 10 µM.
For `Cc1ccc(NC(=O)COc2cccc3ccc(C)nc23)c(Br)c1`, the Potency was inconclusive [inhibitor, single point].
With `CCOC(=O)c1c(C)[nH]c(C)c1S(=O)(=O)Nc1ccc(CN2CCCCC2)cc1` the “activity change, negative = inhibition” value was inactive: 8.05%.
For `CCOC(=O)Cc1csc(NC(=O)c2ccc(N3CCOCC3)cc2[N+](=O)[O-])n1`, the Potency was active: 11.2 µM.
With `COc1ccc(/C=C/c2c([N+](=O)[O-])c(=O)n(C)c(=O)n2C)c(OC)c1OC` the “activity change, negative = inhibition” value was inactive: -8.55%.
In the case of `COc1cc(C2c3cc4c(cc3OC(NNC(N)=O)C2C)OCO4)cc(OC)c1OC` (configuration not stated), the Potency is reported as inconclusive [inhibitor, single point].
For `COc1ccccc1CCNC(=O)c1cc(C2CC2)nc2c1cnn2C(C)C`, the Potency was active: 8.91 µM.
With `COc1ccc(O)c(/C=N/Nc2nc(C)cc(-c3ccccc3)n2)c1` the Potency was active: 3.98 µM.
For `Cc1ccc(NC(=O)CCc2nnc3ccc(NCc4ccco4)nn23)cc1`, the “activity change, negative = inhibition” value was inactive: 12.4%.
For `O=C(c1ccc(Cn2ccc([N+](=O)[O-])n2)cc1)N1CCN(Cc2ccccc2)CC1`, the Potency was inconclusive [inhibitor, partial curve].
For `Cc1ccc(C2CC(c3cccs3)=NN2C(=O)CSc2nc(=O)n3cc(C)ccc3n2)cc1` (configuration not stated), the Potency was inconclusive [inhibitor, single point].
With `CC(NC(=O)C(=O)NN=C1CCCCCCCCCCC1)c1ccccc1` (configuration not stated) the “activity change, negative = inhibition” value was inactive: 4.96%.
With `CC(C(=O)NC1=NCCS1)(C(F)(F)F)C(F)(F)F` the “activity change, negative = inhibition” value was inactive: 13.1%.
In the case of `CCc1nnc(NC(=O)C2Cc3ccccc3CN2S(=O)(=O)c2ccc(C)cc2)s1` (configuration not stated), the “activity change, negative = inhibition” value is reported as inactive: -15.9%.
For `COc1ccc(N(CC(=O)NCCOc2ccccc2)S(=O)(=O)c2ccc(C)cc2)cc1`, the Potency was inconclusive [inhibitor, single point].
